Results as given in the supplement of paper PMC11417369.
The list shows a part of the results.

Each sequence was assayed on PfAP2-HC AP2 domain (GST-tagged) (assay: gcPBM binding intensity (ln(normalized median fluorescence intensity)); higher = stronger DNA binding).
Summary of the method: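 DNA-binding domains from P. falciparum, fused to GST and produced in E. coli, were put on an Agilent 4 × 180k double-stranded probe array for 1 h in 1× PBS holding 1% milk, 0.2 mg/ml BSA, 0.5% salmon testes DNA and 0.03% Triton X-100. Probes were primer-extended, 36 bp long and drawn from intergenic genomic regions, with negative controls included. After Alexa488 anti-GST antibody detection and a 488 nm scan, binding intensity was set as the highest Masliner-normalised natural-log median intensity across replicate spots of either probe orientation.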

Sequence | gcPBM binding intensity (ln)
TTTAAATATTTTATAGCATGCTACCAATATGTATAT [TGCATGCA_site291] | 9.96
AACTATAATTAAAGGATGCACTTGAAGGCATTTCAA [GTGCAC_site9689] | 9.66
TATTCATAACAATGATGTACATATATTTTTTTTTTC [XGTACX_site5619] | 9.56
CATATATAGATATATACACACATATAGATTTTCTTT [CACACA_site6797] | 9.8
TTACTTGTTTATTTTTTTTTTTTTTTTTTTTTTGTT [TGCATGCA_negctrl_site103] | 9.29
TAATGGAGAAAATAATGTACTTAGATATTTGTTCTA [XGTACX_site6312] | 9.47
TATTCTTATTATTACACACACAATTATATTTACCCC [CACACA_site6381] | 10.3
TATATATATATAATAGCATGCTATATTATATATATA [TGCATGCA_site886] | 9.45
TTAACATAAATTGTGTCATTTTTTTTTTTTTTTTTA [CACACA_negctrl_site1221] | 9.49
TATTTTTTAATTGTTTCACACATTATTTTTTACATA [CACACA_site6078] | 9.96
TACACCCAGAAATGCACACACATATATATATATATA [CACACA_site5289] | 10.5
ATGAACATGTGACAATGTACATTTATATCTTAAGAA [XGTACX_site4960] | 9.72
ATAATATATATATATATGTATGTATATATGTATGTA [GTGCAC_negctrl_site575] | 9.93
ATCAGGCAAAATTTTTGTACATATATATTTTATTTT [XGTACX_site1245] | 9.8
TTATAAATGTGCGTAGTGCATAAACAAAAAAAAAAT | 9.84
AGATTTCAAGGTAATAGATCAATTTTAATTTGTAAA [CACACA_negctrl_site514] | 9.39
TTAAAATGAAGAAGTGCACACATATATATATTTATA [CACACA_site8063] | 9.95
TTAACACATTTTATGTGTACTCATATGATTTAAAAT [XGTACX_site7516] | 9.55
AATTTTTTTTTCTTTTGTACGTAAATATGTGTAGGC [XGTACX_site215] | 9.44

Sequence | gcPBM binding intensity (ln)
CTAATAAAAAAAAAAAGTACATATGACAATATAAAG [XGTACX_site1598] | 9.76
TATATATTAGTGTTGACACACACAAAAAAAAAAAAA [CACACA_site8392] | 9.92
TATAAACAGACGAAAACACACATATGTAGATATATA [CACACA_site6371] | 10.1
TGTAGCATTTAATTCACACATAAAAAATGTATCCAT [CACACA_site4986] | 9.52
AAAAAAAGTAAAAAGTGTACTTAATATATATATATA [XGTACX_site838] | 9.73
TATATGTGATAACACGCACACAAATGTATATAATTT [CACACA_site2593] | 10.1
AAAAAAAAAAAACATACACACATTGAACTTTTATAT [CACACA_site3250] | 9.85
ATAAAATAAAAATTCTGTACAGAATTAAAAAAATAT [XGTACX_site6961] | 9.85
TATTCATGCATATACACACACATATATATATATTTT [CACACA_site3955] | 10.2
AAAAAAAAATTAAACATACACACGTTACTATTTTTA [CACACA_site1687] | 9.76
ATCATAATTTATTATACACACAATACGTGACCTATT [CACACA_site6977] | 9.93
AATGAAAAATTGTAATGTACATAAATAAATAAATAA [XGTACX_site4048] | 9.87
TACAATATACCTACTTGTACACAAAATAAAAGTAGT [XGTACX_site6029] | 9.68
TTTTATATAAATATCACACACACACGCATGTTTTAA [CACACA_site6187] | 10.4
TACACACCTAACTATGCATGCATCAATATAGTGGAT [TGCATGCA_site443] | 9.74
AAAAGCTTAAAAAATTGTACATAAATGAATAAATAT [XGTACX_site5201] | 9.66
AAAAATAAAACAATTACACACATAACTTTATTTTTA [CACACA_site6563] | 9.8
ACAAATGGAACTCCTACAAAAAATTTCCATAATATT [XGTACX_negctrl_site132] | 9.6
TAAACCTATTATACGGGTACTTATTTGATTCTTATA [XGTACX_site5292] | 9.59

Sequence | gcPBM binding intensity (ln)
ACCACCATATAACATACATGCATCTTTTTTCCCTTC [TGCATGCA_site583] | 10.1
GAACTCATTTAATATTGTACATTCTGATATTTTTTA [XGTACX_site5995] | 10
TCTTGTTAATATATTAAATATATCTATAAATATATA [XGTACX_negctrl_site486] | 9.66
TATATACATACATATACACACATATATATATATATA [CACACA_site401] | 9.77
GTATAAAATATTGATTGTACTTTATTCATTTTTTTT [XGTACX_site2520] | 9.56
TCATATTCCAAGTGTACACATAAATCCCTAATAACA [CACACA_site5167] | 9.61
TCATTGTTTAATATGTGTCCTCAAAATTTGTTATAT [XGTACX_site677] | 9.61
ACAATTCATTAGAATTGTACAAAAGGATGAAGCGAA [XGTACX_site5242] | 9.92
ATTTAATACAAATACACACACAAATATGTACCTATA [CACACA_site7718] | 10.3
ATTTTTTTTTTTTAATTTGATATTTGCGTTTATATA [CACACA_negctrl_site1305] | 9.71
CATTTAGTTCATACTATGCACACTACGTATATTTTT [CACACA_site2694] | 10
AATGCACAGCTCTTAGGCAAAAGTGGGTATTTACAC [GTGCAC_negctrl_site579] | 9.62
TGTATAAAAAACTAATGTACAAATGACAAGATATCT [XGTACX_site4600] | 9.65
AAAAAATGTTAAAAAAGTACTTTCTTTATTTAATAA [XGTACX_site2908] | 9.45
AACAATTGTTAAAGGTGTACCATATGTATATAAGAA [XGTACX_site5723] | 9.8
AGACGTAATAATTGTTGTACATAAAAAAATAAGAAA [XGTACX_site7594] | 9.8
TGTGTTAGCAAAAAAGTGCACAGGGAAAAAAAAATA [GTGCAC_site9397] | 9.8
ATGATATTATAAAAAAGTACATATGTATATAATTAT [XGTACX_site7652] | 9.89
